Measured values reported in paper PMC8316351.
These are yes or no findings as the source states them, for the method shown. Binding seen in cells or lysates may run through a third protein. Some binding calls cover weakened binding; strength is not graded here. For part of these data: Where a sequence is shown, tags or fusion partners need not be part of it.

Chains of the proteins cited; added tags and fusions are not shown. Lines headed by an entry give the natural chain unless they say otherwise; changes in a name come on top. A line that says so, or that is headed by a name, gives the form on record, which may keep a tag or linker. Residues count along the entry.
UniProt A2BH40: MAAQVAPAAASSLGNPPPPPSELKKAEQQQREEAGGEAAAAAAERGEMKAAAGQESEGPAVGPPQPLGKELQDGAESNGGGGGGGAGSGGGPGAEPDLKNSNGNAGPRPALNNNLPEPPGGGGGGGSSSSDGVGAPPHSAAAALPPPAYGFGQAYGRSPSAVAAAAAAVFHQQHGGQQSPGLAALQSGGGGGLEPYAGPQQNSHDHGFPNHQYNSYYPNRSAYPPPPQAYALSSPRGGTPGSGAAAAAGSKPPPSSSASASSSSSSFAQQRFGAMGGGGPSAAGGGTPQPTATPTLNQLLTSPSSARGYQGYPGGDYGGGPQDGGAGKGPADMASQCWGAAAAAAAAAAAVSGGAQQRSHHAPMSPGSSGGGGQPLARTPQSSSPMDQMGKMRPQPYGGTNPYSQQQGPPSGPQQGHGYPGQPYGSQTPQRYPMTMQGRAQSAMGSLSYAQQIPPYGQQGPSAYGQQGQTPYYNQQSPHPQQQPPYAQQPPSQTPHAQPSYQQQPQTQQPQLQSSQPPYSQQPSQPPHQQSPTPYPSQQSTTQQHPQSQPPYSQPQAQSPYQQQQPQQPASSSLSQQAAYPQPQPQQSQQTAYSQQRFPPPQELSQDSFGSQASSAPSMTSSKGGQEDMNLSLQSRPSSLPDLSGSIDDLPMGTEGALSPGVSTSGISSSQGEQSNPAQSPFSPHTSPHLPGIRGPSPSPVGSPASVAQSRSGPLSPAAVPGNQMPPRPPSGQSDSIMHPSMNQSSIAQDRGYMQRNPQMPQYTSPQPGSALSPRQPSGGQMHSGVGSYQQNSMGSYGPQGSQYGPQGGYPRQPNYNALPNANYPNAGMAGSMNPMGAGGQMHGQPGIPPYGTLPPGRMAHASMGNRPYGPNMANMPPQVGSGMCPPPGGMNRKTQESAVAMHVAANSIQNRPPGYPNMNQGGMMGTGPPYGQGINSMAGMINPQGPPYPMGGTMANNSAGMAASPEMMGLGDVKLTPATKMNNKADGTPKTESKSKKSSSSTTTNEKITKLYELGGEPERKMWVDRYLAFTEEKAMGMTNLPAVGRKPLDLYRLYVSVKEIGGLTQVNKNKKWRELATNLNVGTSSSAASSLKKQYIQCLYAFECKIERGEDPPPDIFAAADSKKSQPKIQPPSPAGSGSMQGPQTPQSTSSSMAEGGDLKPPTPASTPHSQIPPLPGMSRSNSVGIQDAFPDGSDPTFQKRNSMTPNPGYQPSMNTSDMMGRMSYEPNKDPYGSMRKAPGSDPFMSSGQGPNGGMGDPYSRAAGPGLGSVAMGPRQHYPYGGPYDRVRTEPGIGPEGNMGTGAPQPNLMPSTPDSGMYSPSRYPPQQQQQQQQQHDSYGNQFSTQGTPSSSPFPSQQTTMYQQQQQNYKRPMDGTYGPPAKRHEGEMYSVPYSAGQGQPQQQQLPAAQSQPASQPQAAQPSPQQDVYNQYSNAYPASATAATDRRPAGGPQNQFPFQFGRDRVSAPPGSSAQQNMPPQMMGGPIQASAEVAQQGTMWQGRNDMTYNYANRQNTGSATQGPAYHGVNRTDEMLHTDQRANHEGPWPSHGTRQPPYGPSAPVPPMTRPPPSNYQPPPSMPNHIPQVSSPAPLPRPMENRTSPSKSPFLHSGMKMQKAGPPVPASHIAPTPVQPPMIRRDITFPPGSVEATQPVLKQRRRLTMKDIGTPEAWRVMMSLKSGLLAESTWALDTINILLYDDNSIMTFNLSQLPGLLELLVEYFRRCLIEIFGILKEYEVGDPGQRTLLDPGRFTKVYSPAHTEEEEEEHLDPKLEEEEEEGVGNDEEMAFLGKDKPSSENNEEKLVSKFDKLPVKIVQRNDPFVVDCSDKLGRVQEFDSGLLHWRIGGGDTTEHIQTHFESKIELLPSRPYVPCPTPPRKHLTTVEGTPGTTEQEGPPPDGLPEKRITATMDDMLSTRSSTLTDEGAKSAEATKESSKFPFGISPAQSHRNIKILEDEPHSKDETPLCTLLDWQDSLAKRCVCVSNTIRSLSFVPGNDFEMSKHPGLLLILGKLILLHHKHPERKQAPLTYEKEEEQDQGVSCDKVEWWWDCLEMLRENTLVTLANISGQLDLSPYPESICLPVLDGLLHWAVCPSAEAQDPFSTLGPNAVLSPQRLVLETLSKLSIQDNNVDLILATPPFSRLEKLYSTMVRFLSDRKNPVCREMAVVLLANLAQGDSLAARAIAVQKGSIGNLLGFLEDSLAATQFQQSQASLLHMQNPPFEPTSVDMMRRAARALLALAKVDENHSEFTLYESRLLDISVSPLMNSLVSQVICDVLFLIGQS
UniProt Q8BVE8: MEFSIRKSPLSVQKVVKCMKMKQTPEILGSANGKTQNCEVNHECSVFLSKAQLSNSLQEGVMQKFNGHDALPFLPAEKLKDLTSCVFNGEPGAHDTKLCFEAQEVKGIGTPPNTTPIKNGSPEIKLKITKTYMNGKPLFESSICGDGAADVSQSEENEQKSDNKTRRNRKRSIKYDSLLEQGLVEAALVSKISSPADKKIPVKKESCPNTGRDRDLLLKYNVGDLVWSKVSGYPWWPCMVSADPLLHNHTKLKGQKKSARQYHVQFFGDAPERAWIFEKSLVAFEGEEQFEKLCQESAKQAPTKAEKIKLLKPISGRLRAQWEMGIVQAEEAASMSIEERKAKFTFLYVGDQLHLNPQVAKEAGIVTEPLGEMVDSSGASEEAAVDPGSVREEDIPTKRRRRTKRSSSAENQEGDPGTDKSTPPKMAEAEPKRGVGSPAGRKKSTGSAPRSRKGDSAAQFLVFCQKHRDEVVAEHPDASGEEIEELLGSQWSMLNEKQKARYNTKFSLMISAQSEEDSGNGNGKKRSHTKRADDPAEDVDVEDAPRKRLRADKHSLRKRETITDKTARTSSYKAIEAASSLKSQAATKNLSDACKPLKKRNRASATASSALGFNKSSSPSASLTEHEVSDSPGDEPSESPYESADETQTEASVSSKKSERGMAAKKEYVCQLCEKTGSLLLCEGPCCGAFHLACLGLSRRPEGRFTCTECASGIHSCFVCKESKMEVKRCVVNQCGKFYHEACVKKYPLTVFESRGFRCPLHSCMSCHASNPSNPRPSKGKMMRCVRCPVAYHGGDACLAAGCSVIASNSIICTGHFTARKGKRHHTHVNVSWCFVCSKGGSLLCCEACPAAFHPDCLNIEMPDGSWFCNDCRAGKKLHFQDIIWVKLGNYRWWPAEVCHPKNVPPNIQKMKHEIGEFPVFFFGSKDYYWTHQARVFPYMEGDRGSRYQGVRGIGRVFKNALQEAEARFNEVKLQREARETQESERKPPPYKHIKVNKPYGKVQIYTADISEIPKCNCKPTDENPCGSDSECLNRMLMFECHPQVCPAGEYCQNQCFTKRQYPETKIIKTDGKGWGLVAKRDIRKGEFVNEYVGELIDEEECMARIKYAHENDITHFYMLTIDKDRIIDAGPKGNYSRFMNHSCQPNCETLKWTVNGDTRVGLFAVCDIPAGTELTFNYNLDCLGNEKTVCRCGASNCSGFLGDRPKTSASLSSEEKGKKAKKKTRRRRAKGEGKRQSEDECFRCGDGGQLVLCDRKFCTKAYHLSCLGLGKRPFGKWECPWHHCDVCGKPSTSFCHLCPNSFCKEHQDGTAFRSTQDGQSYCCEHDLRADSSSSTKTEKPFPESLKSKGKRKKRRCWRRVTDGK
FLAG-tagged NSD2 C-terminal (629-1367aa): residues 629-1365 of Q8BVE8

Tests used:
[1] = target: ARID1A (AT-rich interacting domain-containing protein 1A), endogenous (mouse (endogenous in BMDMs)) (UniProt A2BH40); experiment: co-IP
[2] = target: FLAG-tagged NSD2 C-terminal (629-1367aa) (UniProt Q8BVE8); experiment: co-IP; tagged proteins co-transfected in HEK293T cells
[3] = target: FLAG-tagged NSD2, wild type (UniProt Q8BVE8); experiment: as above
[4] = target: V5-tagged ARID1A (PEF1a-V5-Arid1a) (UniProt A2BH40); experiment: as above

B1: endogenous phosphorylated IRF3 (protein, UniProt P70671 1-419)
chain: METPKPRILPWLVSQLDLGQLEGVAWLDESRTRFRIPWKHGLRQDAQMADFGIFQAWAEASGAYTPGKDKPDVSTWKRNFRSALNRKEVLRLAADNSKDPYDPHKVYEFVTPGARDFVHLGASPDTNGKSSLPHSQENLPKLFDGLILGPLKDEGSSDLAIVSDPSQQLPSPNVNNFLNPAPQENPLKQLLAEEQWEFEVTAFYRGRQVFQQTLFCPGGLRLVGSTADMTLPWQPVTLPDPEGFLTDKLVKEYVGQVLKGLGNGLALWQAGQCLWAQRLGHSHAFWALGEELLPDSGRGPDGEVHKDKDGAVFDLRPFVADLIAFMEGSGHSPRYTLWFCMGEMWPQDQPWVKRLVMVKVVPTCLKELLEMAREGGASSLKTVDLHISNSQPISLTSDQYKAYLQDLVEDMDFQATGNI
modifications: phosphorylated (sites not given)
binding [1]: binds

B2: Myc-tagged IRF3, wild type (protein, UniProt P70671 1-419)
chain: B1 chain
binding [2]: binds | binding [3]: binds | binding [4]: binds

B3: Myc-tagged IRF3 with the DNA binding domain (DBD; 1-140aa) deleted (domain or fragment, UniProt P70671 141-419)
chain: KLFDGLILGPLKDEGSSDLAIVSDPSQQLPSPNVNNFLNPAPQENPLKQLLAEEQWEFEVTAFYRGRQVFQQTLFCPGGLRLVGSTADMTLPWQPVTLPDPEGFLTDKLVKEYVGQVLKGLGNGLALWQAGQCLWAQRLGHSHAFWALGEELLPDSGRGPDGEVHKDKDGAVFDLRPFVADLIAFMEGSGHSPRYTLWFCMGEMWPQDQPWVKRLVMVKVVPTCLKELLEMAREGGASSLKTVDLHISNSQPISLTSDQYKAYLQDLVEDMDFQATGNI
binding [4]: no binding

B4: Myc-tagged IRF3 with the IRF association domain (IAD; 198-374 aa) deleted (protein, UniProt P70671)
chain: METPKPRILPWLVSQLDLGQLEGVAWLDESRTRFRIPWKHGLRQDAQMADFGIFQAWAEASGAYTPGKDKPDVSTWKRNFRSALNRKEVLRLAADNSKDPYDPHKVYEFVTPGARDFVHLGASPDTNGKSSLPHSQENLPKLFDGLILGPLKDEGSSDLAIVSDPSQQLPSPNVNNFLNPAPQENPLKQLLAEEQWEGGASSLKTVDLHISNSQPISLTSDQYKAYLQDLVEDMDFQATGNI
binding [4]: no binding
